PubChem BioAssay (NCATS)
The shares of active, inactive and inconclusive entries below differ from those in the screen. No potency is given beside an inconclusive call; the fits are too rough. Activity calls are given as the source filed them. Calls follow the shape of the dose curve; as a rule, active = well fitted curve in the direction sought with a large enough effect; inconclusive = small, poorly fitted or top-dose-only effect, or another doubt; inactive = no such curve, though single readings can be large; an effect the other way counts as inactive or inconclusive.

Legend:
[1] = target: Aldehyde dehydrogenase, mitochondrial (Homo sapiens) (UniProt P05091); assay: qHTS for Inhibitors of the Aldehyde Dehydrogenase Family (ALDH2) Primary screen (AID 2061308); also: nearly all actives have a fitted effect of over 55% in size
[2] = target: Retinaldehyde dehydrogenase 3 (Homo sapiens) (UniProt P47895); assay: qHTS for Inhibitors of the Aldehyde Dehydrogenase Family (ALDH1A3) Primary screen (AID 2061315); conditions: ALDH inhibition qHTS; activity change, negative = inhibition: at 56 µM (top of the series) unless noted
[3] = target: Retinaldehyde dehydrogenase 3 (Homo sapiens) (UniProt P47895); assay: qHTS for Inhibitors of the Aldehyde Dehydrogenase Family (ALDH1A3) Validation screen (AID 2061312); conditions: ALDH1A3 enzyme inhibition qHTS validation, fluorescence; activity change, negative = inhibition: at 84.7 µM (top of the series); also: nearly all actives have a fitted effect of over 45% in size
[4] = BET inhibitor-based combinations targeting novel dependencies in MECOM-rearranged (r) AML: MV-4-11 cell line (AID 2202233); conditions: MV-4-11 AML viability, CellTiter-Glo luminescence, 48 h; series mostly up to 46 µM; also: nearly all actives have a fitted effect of over 45% in size
Method in brief: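 Seeding density was 500 cells/well, and drug exposure lasted 48 hr under standard culture conditions. Read-out used CellTiter-Glo reagent with a 15 min room-temperature incubation before luminescence measurement; AUC and Z-AUC summarize the normalized responses.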
Potency is read from the fitted curve at half-maximal effect; tags tell the direction and shape of the fitted curve.

With `Oc1cc(NCc2ccc(Cl)cc2)cc2cccnc12` the Potency [1] was inconclusive [inhibitor, single point] and the Potency [2] was inconclusive [inhibitor, single point].
For `Cc1cc(C)nc(NC(=S)N2CCN(c3ncc(C(F)(F)F)cc3Cl)CC2)c1`, the Potency [1] was “inactive” and the Potency [2] was inconclusive [inhibitor, single point].
With `Cc1csc(N(C(=O)CSc2ccc(-c3ccccc3)nn2)C2CC2)n1` the Potency [1] was inconclusive [inhibitor, partial curve, poor fit], the Potency [3] was active: 2.82 µM and the Potency [2] was inconclusive [inhibitor, full curve].
For `C[C@H](O)[C@@H]1C(=O)N2C(C(=O)O)=C(S[C@@H]3CN[C@H](CNS(N)(=O)=O)C3)[C@@H](C)[C@@H]12`, the Potency [1] was inconclusive [inhibitor, partial curve, poor fit], the Potency [3] was inconclusive [inhibitor, full curve, poor fit] and the Potency [4] was inconclusive [inhibitor].
For `Cc1ccc(-c2cn3c4c(sc3n2)CCCC4)cc1`, the Potency [1] was “inactive”, the Potency [3] was active: 25.1 µM and the Potency [2] was inconclusive [inhibitor, partial curve, poor fit].
In the case of `COc1cc2nc(=NC(=O)c3cccnc3)n3c(c2cc1OC)NCC3`, the Potency [1] is reported as “inactive” and the Potency [3] is reported as inconclusive [inhibitor, full curve].
For `COc1cccc(CNc2ccc(S(=O)(=O)Nc3nc4ccccc4s3)cc2)c1O`, the Potency [1] was inconclusive [inhibitor, partial curve] and the Potency [2] was inconclusive [inhibitor, partial curve, poor fit].
